Results published in publication PMC5892938.
This is one part of the list. At the low end of the ranking the order means little.

molecular target: GST-SBP-SLBP (stem-loop binding protein) (UniProt Q14493); experiment: targeted RNA Bind-n-Seq; details: RBNS binding buffer: 25 mM Tris pH 7.5, 150 mM KCl, 3 mM MgCl2, 0.1% Tween, 0.5 mg/mL BSA, 1 mM DTT; 27 nM protein, 750 pM RNA pool; temperature not stated; high values mean tight binding;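 note: DESeq read counts versus GST-SBP nonspecific binding control pulldown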

Sequence	binding signal (log2 fold change)
GGUCACGUCUCAAUCAACUCAAUGGAGGGGGGGAAAACCCCUUUACCCUCAAUAUCAACAGCUCGCAGUCAAG	-0.286
GGUCACGUCUCAAUCAACUCUAUUCCCAGGGAAAUCCCUGGUUAACUCAACAGCUCGCAGUCAAG	-0.138
GGUCACGUCUCAAUCAACUCUUCCUCAGGAGUUUCCUCCUGUUUACUCAACAGCUCGCAGUCAAG	-0.0449
GGUCACGUCUCAAUCAACUCUUCCCCCAGGGAAAGCCCUGGUUAACUCAACAGCUCGCAGUCAAG	-0.0275
GGUCACGUCUCAAUCAACUCUAUCUCCAGGGAAACCCCUGGCAAUGUCAACAGCUCGCAGUCAAG	0.0551
GGUCACGUCUCAAUCAACUCUUAAGAGGGGGGGAAAACCCCUUUACCCUCAUUUUCAACAGCUCGCAGUCAAG	-0.259
GGUCACGUCUCAAUCAACUCAUUUCCAGGAGUUUCCUCCUGUAGUCUCAACAGCUCGCAGUCAAG	0.0973
GGUCACGUCUCAAUCAACUCUUCUUCCAGGGAAACCCCUGGCUUUUUCAACAGCUCGCAGUCAAG	-0.0384
GGUCACGUCUCAAUCAACUCAACUUCCAGGGAAAUCCCUGGUAAUCUCAACAGCUCGCAGUCAAG	-0.0858
GGUCACGUCUCAAUCAACUCUACUUCCAGGGAAACCCCUGGUAUUCUCAACAGCUCGCAGUCAAG	0.278
GGUCACGUCUCAAUCAACUCAACUUCAGGAGUUUACUCCUGUAUUCUCAACAGCUCGCAGUCAAG	0.0532
GGUCACGUCUCAAUCAACUCAUCCCCAGGAGUUUACUCCUGCUAUUUCAACAGCUCGCAGUCAAG	-0.0351
GGUCACGUCUCAAUCAACUCUAUUUCAGGAGUUUACUCCUGCUAACUCAACAGCUCGCAGUCAAG	0.0206
GGUCACGUCUCAAUCAACUCAUCUCCCAGGGAAAACCCUGGCAAUCUCAACAGCUCGCAGUCAAG	-0.0791
GGUCACGUCUCAAUCAACUCUAUUCCAGGAGUUUCCUCCUGUUAUUUCAACAGCUCGCAGUCAAG	0.18
GGUCACGUCUCAAUCAACUCUUCUCCCAGGGAAAGCCCUGGUAUUUUCAACAGCUCGCAGUCAAG	0.0462
GGUCACGUCUCAAUCAACUCCAAAGAGGGGGGGAAAACCCCUUUACCCUCACAUUCAACAGCUCGCAGUCAAG	-0.148
GGUCACGUCUCAAUCAACUCAACUUCAGGAGUUUCCUCCUGCAAUUUCAACAGCUCGCAGUCAAG	0.245
GGUCACGUCUCAAUCAACUCAGUCUCAGGAGUUUCCUCCUGCAUUCUCAACAGCUCGCAGUCAAG	-0.0682
GGUCACGUCUCAAUCAACUCAGUUCCAGGAGUUUACUCCUGUAUUUUCAACAGCUCGCAGUCAAG	-0.226
GGUCACGUCUCAAUCAACUCAAUUUCAGGAGUUUUCUCCUGUAUUUUCAACAGCUCGCAGUCAAG	0.102
GGUCACGUCUCAAUCAACUCUUUCUCCAGGGAAAUCCCUGGUUAACUCAACAGCUCGCAGUCAAG	-0.0842
GGUCACGUCUCAAUCAACUCCCAAAGGUUUUUCUCAGAACCACCCAUCAACAGCUCGCAGUCAAG	0.402
GGUCACGUCUCAAUCAACUCUAUUUCAGGAGUUUUCUCCUGUUAUCUCAACAGCUCGCAGUCAAG	-0.000102
GGUCACGUCUCAAUCAACUCAUCCUCCAGGGAAAACCCUGGUAAAUUCAACAGCUCGCAGUCAAG	-0.179

Sequence	binding signal (log2 fold change)
GGUCACGUCUCAAUCAACUCUUUCGAGGGGGGGAAAACCCCUUUACCCUCACUUUCAACAGCUCGCAGUCAAG	-0.496
GGUCACGUCUCAAUCAACUCUUCCUCAGGAGUUUUCUCCUGCAUACUCAACAGCUCGCAGUCAAG	0.0201
GGUCACGUCUCAAUCAACUCAACUUCCAGGGAAAGCCCUGGCAAAUUCAACAGCUCGCAGUCAAG	0.0995
GGUCACGUCUCAAUCAACUCUUCGGAGGGGGGGAAAACCCCUUUACCCUCAUUAUCAACAGCUCGCAGUCAAG	0.00422
GGUCACGUCUCAAUCAACUCUCUCGAGGGGGGGAAAACCCCUUUACCCUCUUACUCAACAGCUCGCAGUCAAG	-0.11
GGUCACGUCUCAAUCAACUCAACAGAGGGGGGGAAAACCCCUUUACCCUCCUAUUCAACAGCUCGCAGUCAAG	-0.19
GGUCACGUCUCAAUCAACUCUAUUUCCAGGGAAAGCCCUGGCUAUCUCAACAGCUCGCAGUCAAG	-0.236
GGUCACGUCUCAAUCAACUCAAUUUCCAGGGAAAUCCCUGGCAUACUCAACAGCUCGCAGUCAAG	0.298
GGUCACGUCUCAAUCAACUCAAUAGAGGGGGGGAAAACCCCUUUGCCCUCAAUAUCAACAGCUCGCAGUCAAG	-0.221
GGUCACGUCUCAAUCAACUCAUCCUCAGGAGUUUACUCCUGUUUAGUCAACAGCUCGCAGUCAAG	0.0607
GGUCACGUCUCAAUCAACUCUUUAGAGGGGGGGAAAACCCCUUUACCCUCACCAUCAACAGCUCGCAGUCAAG	0.0104
GGUCACGUCUCAAUCAACUCCAAAGAGGGGGGGAAAACCCCUUUACCCUCGUAAUCAACAGCUCGCAGUCAAG	-0.204
GGUCACGUCUCAAUCAACUCUACUCCAGGAGUUUUCUCCUGUUAACUCAACAGCUCGCAGUCAAG	-0.095
GGUCACGUCUCAAUCAACUCAUCUUCAGGAGUUUUCUCCUGUGUAUUCAACAGCUCGCAGUCAAG	-0.035
GGUCACGUCUCAAUCAACUCAUUCCCCAGGGAAACCCCUGGUUAAUUCAACAGCUCGCAGUCAAG	-0.052
GGUCACGUCUCAAUCAACUCCAAAGAGGGGGGGAAAACCCCUUUACCCUCGUCAUCAACAGCUCGCAGUCAAG	-0.128
GGUCACGUCUCAAUCAACUCAACUCCCAGGGAAAGCCCUGGUUUUCUCAACAGCUCGCAGUCAAG	0.0722
GGUCACGUCUCAAUCAACUCCAUGGAGGGGGGGAAAACCCCUUUACCCUCAUCCUCAACAGCUCGCAGUCAAG	-0.35
GGUCACGUCUCAAUCAACUCAAACGAGGGGGGGAAAACCCCUUUACCCUCAACUUCAACAGCUCGCAGUCAAG	0.35
GGUCACGUCUCAAUCAACUCAUCCCCAGGAGUUUGCUCCUGUAAAUUCAACAGCUCGCAGUCAAG	-0.112
GGUCACGUCUCAAUCAACUCAACUUCCAGGGAAAACCCUGGCUAUUUCAACAGCUCGCAGUCAAG	0.0207
GGUCACGUCUCAAUCAACUCAUCCUCAGGAGUUUCCUCCUGCUUUCUCAACAGCUCGCAGUCAAG	0.112
GGUCACGUCUCAAUCAACUCAUUCCCCAGGGAAACCCCUGGCUAUUUCAACAGCUCGCAGUCAAG	-0.223
GGUCACGUCUCAAUCAACUCAUCUCCCAGGGAAAACCCUGGCUAUUUCAACAGCUCGCAGUCAAG	0.00982
GGUCACGUCUCAAUCAACUCUUUCUCCAGGGAAAACCCUGGCAUUCUCAACAGCUCGCAGUCAAG	0.0686

Sequence	binding signal (log2 fold change)
GGUCACGUCUCAAUCAACUCAACUUCAGGAGUUUUCUCCUGUUAUUUCAACAGCUCGCAGUCAAG	-0.0564
GGUCACGUCUCAAUCAACUCCACUGAGGGGGGGAAAACCCCUUUACCCUCCAAAUCAACAGCUCGCAGUCAAG	0.0798
GGUCACGUCUCAAUCAACUCAGUUUCCAGGGAAACCCCUGGUUUAUUCAACAGCUCGCAGUCAAG	-0.0957
GGUCACGUCUCAAUCAACUCAACUCCAGGAGUUUACUCCUGCUAUUUCAACAGCUCGCAGUCAAG	0.037
GGUCACGUCUCAAUCAACUCUUUCCCCAGGGAAACCCCUGGCAAUUUCAACAGCUCGCAGUCAAG	0.111
GGUCACGUCUCAAUCAACUCAUUCUCCAGGGAAAACCCUGGUUAUUUCAACAGCUCGCAGUCAAG	-0.274
GGUCACGUCUCAAUCAACUCAAUGUCAGGAGUUUUCUCCUGUUAAUUCAACAGCUCGCAGUCAAG	-0.0274
GGUCACGUCUCAAUCAACUCUAUCGAGGGGGGGAAAACCCCUUUGCCCUCACAUUCAACAGCUCGCAGUCAAG	-0.204
GGUCACGUCUCAAUCAACUCAUCGUCAGGAGUUUCCUCCUGUAUACUCAACAGCUCGCAGUCAAG	0.184
GGUCACGUCUCAAUCAACUCAGUUUCAGGAGUUUUCUCCUGCUAAUUCAACAGCUCGCAGUCAAG	-0.066
GGUCACGUCUCAAUCAACUCUUUCGCAGGAGUUUCCUCCUGGUUUCUCAACAGCUCGCAGUCAAG	0.247
GGUCACGUCUCAAUCAACUCAACUUCAGGAGUUUUCUCCUGCAUACUCAACAGCUCGCAGUCAAG	-0.00692
GGUCACGUCUCAAUCAACUCUUUAGAGGGGGGGAAAACCCCUUUACCCUCCACAUCAACAGCUCGCAGUCAAG	0.0365
GGUCACGUCUCAAUCAACUCAACAGAGGGGGGGAAAACCCCUUUACCCUCAUCUUCAACAGCUCGCAGUCAAG	0.275
GGUCACGUCUCAAUCAACUCAAUCUCCAGGGAAACCCCUGGUUUUCUCAACAGCUCGCAGUCAAG	-0.0236
GGUCACGUCUCAAUCAACUCAUUCCCAGGAGUUUUCUCCUGCUUUCUCAACAGCUCGCAGUCAAG	0.149
GGUCACGUCUCAAUCAACUCAGUCCCAGGAGUUUGCUCCUGCUAAUUCAACAGCUCGCAGUCAAG	-0.0496
GGUCACGUCUCAAUCAACUCAUUUCCAGGAGUUUUCUCCUGCUUUGUCAACAGCUCGCAGUCAAG	0.0246
GGUCACGUCUCAAUCAACUCUUUUCCCAGGGAAAACCCUGGUAAUCUCAACAGCUCGCAGUCAAG	-0.00474
GGUCACGUCUCAAUCAACUCAUCGGCAGGAGUUUUCUCCUGGAAUUUCAACAGCUCGCAGUCAAG	0.0369
GGUCACGUCUCAAUCAACUCAUCGCCAGGAGUUUUCUCCUGUUUAUUCAACAGCUCGCAGUCAAG	-0.0302
GGUCACGUCUCAAUCAACUCAUCUUCCAGGGAAAUCCCUGGUAAAUUCAACAGCUCGCAGUCAAG	0.0142
GGUCACGUCUCAAUCAACUCUUUUUCAGGAGUUUUCUCCUGCUUUCUCAACAGCUCGCAGUCAAG	0.119
GGUCACGUCUCAAUCAACUCUUCUUCAGGAGUUUACUCCUGUUUACUCAACAGCUCGCAGUCAAG	-0.025
